Laboratory results published in article PMC12820563.
Some of the results follow. The list includes weakly bound sequences.

Target: T1, MBP-FoxP3dN (UniProt Q99JB6)
T1 sequence: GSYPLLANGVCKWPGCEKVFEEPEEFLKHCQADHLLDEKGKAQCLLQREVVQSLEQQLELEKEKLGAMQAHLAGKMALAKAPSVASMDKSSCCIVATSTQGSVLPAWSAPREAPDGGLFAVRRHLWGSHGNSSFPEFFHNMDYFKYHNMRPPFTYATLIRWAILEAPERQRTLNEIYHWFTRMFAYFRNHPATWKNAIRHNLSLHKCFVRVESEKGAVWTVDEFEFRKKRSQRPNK
Test: PD-seq (MBP pull-down with sequencing)
Details: 20 mM Tris-HCl pH 7.5, 100 mM NaCl, 1.5 mM MgCl2, 0.4 uM protein, 0.1 uM dsDNA library, 30 min, room temperature, amylose pull-down; high values mean tight binding; double strand, one strand shown

| Sequence | binding signal (RPM ratio (pull-down/input)) |
| --- | --- |
| GATGATTGTTCTCCCAGCTGATGAATTAAGCGTCTCGAGTAAACAAATTTTCCTAATCTTTCTGTTCAAGCGCCATCTAC | 3.79 |
| GATGATTGTTCTCCCAGCTGATGAATTGAAGAGCTCGAGTAAACAAATTTTCCTAATCTTTCTGTTCAAGCGCCATCTAC | 0.196 |
| GATGATTGTTCTCCCAGCTGATGAATTAAACTCCTCGAGTAAACAAATTTTCCTAATCTTTCTGTTCAAGCGCCATCTAC | 0.338 |
| GATGATTGTTCTCCCAGCTGATGAATTTTCTATCTCGAGTAAACAAATTTTCCTAATCTTTCTGTTCAAGCGCCATCTAC | 0.305 |
| GATGATTGTTCTCCCAGCTGATGAATTTAAGATTTCGAGTAAACAAATTTTCCTAATCTTTCTGTTCAAGCGCCATCTAC | 0.304 |
| GATGATTGTTCTCCCAGCTGATGAATTTTCAGCATCGAGTAAACAAATTTTCCTAATCTTTCTGTTCAAGCGCCATCTAC | 0.775 |
| GATGATTGTTCTCCCAGCTGATGAATTCTTATTCTCGAGTAAACAAATTTTCCTAATCTTTCTGTTCAAGCGCCATCTAC | 0.431 |
| GATGATTGTTCTCCCAGCTGATGAATTCTGCTTTTCGAGTAAACAAATTTTCCTAATCTTTCTGTTCAAGCGCCATCTAC | 3.35 |
| GATGATTGTTCTCCCAGCTGATGAATTGATAGCGTCGAGTAAACAAATTTTCCTAATCTTTCTGTTCAAGCGCCATCTAC | 0.771 |
| GATGATTGTTCTCCCAGCTGATGAATTCCCTATATCGAGTAAACAAATTTTCCTAATCTTTCTGTTCAAGCGCCATCTAC | 0.309 |
| GATGATTGTTCTCCCAGCTGATGAATTATTGGCCTCGAGTAAACAAATTTTCCTAATCTTTCTGTTCAAGCGCCATCTAC | 0.803 |
| GATGATTGTTCTCCCAGCTGATGAATTTCTGGAATCGAGTAAACAAATTTTCCTAATCTTTCTGTTCAAGCGCCATCTAC | 0.186 |
| GATGATTGTTCTCCCAGCTGATGAATTTCCCCGATCGAGTAAACAAATTTTCCTAATCTTTCTGTTCAAGCGCCATCTAC | 0.178 |
| GATGATTGTTCTCCCAGCTGATGAATTGCCTACCTCGAGTAAACAAATTTTCCTAATCTTTCTGTTCAAGCGCCATCTAC | 0.549 |
| GATGATTGTTCTCCCAGCTGATGAATTGTAACAGTCGAGTAAACAAATTTTCCTAATCTTTCTGTTCAAGCGCCATCTAC | 0.73 |
| GATGATTGTTCTCCCAGCTGATGAATTGGGCCCCTCGAGTAAACAAATTTTCCTAATCTTTCTGTTCAAGCGCCATCTAC | 0.951 |
| GATGATTGTTCTCCCAGCTGATGAATTCTGCGCCTCGAGTAAACAAATTTTCCTAATCTTTCTGTTCAAGCGCCATCTAC | 2.3 |
| GATGATTGTTCTCCCAGCTGATGAATTCTAGCTGTCGAGTAAACAAATTTTCCTAATCTTTCTGTTCAAGCGCCATCTAC | 0.392 |
| GATGATTGTTCTCCCAGCTGATGAATTAGGCCTGTCGAGTAAACAAATTTTCCTAATCTTTCTGTTCAAGCGCCATCTAC | 3.91 |
| GATGATTGTTCTCCCAGCTGATGAATTAAGTGTTTCGAGTAAACAAATTTTCCTAATCTTTCTGTTCAAGCGCCATCTAC | 1.87 |
| GATGATTGTTCTCCCAGCTGATGAATTAGCAATCTCGAGTAAACAAATTTTCCTAATCTTTCTGTTCAAGCGCCATCTAC | 1.48 |

| Sequence | binding signal (RPM ratio (pull-down/input)) |
| --- | --- |
| GATGATTGTTCTCCCAGCTGATGAATTGGTACGGTCGAGTAAACAAATTTTCCTAATCTTTCTGTTCAAGCGCCATCTAC | 0.366 |
| GATGATTGTTCTCCCAGCTGATGAATTGTTTCGGTCGAGTAAACAAATTTTCCTAATCTTTCTGTTCAAGCGCCATCTAC | 0.842 |
| GATGATTGTTCTCCCAGCTGATGAATTGACGTAGTCGAGTAAACAAATTTTCCTAATCTTTCTGTTCAAGCGCCATCTAC | 0.381 |
| GATGATTGTTCTCCCAGCTGATGAATTTTGCATTTCGAGTAAACAAATTTTCCTAATCTTTCTGTTCAAGCGCCATCTAC | 6.44 |
| GATGATTGTTCTCCCAGCTGATGAATTTAATGACTCGAGTAAACAAATTTTCCTAATCTTTCTGTTCAAGCGCCATCTAC | 1.9 |
| GATGATTGTTCTCCCAGCTGATGAATTGCGATCATCGAGTAAACAAATTTTCCTAATCTTTCTGTTCAAGCGCCATCTAC | 0.941 |
| GATGATTGTTCTCCCAGCTGATGAATTTTCATGTTCGAGTAAACAAATTTTCCTAATCTTTCTGTTCAAGCGCCATCTAC | 0.51 |
| GATGATTGTTCTCCCAGCTGATGAATTATTCAATTCGAGTAAACAAATTTTCCTAATCTTTCTGTTCAAGCGCCATCTAC | 0.399 |
| GATGATTGTTCTCCCAGCTGATGAATTATAGAGTTCGAGTAAACAAATTTTCCTAATCTTTCTGTTCAAGCGCCATCTAC | 0.418 |
| GATGATTGTTCTCCCAGCTGATGAATTTCCACTGTCGAGTAAACAAATTTTCCTAATCTTTCTGTTCAAGCGCCATCTAC | 0.273 |
| GATGATTGTTCTCCCAGCTGATGAATTAAACGTGTCGAGTAAACAAATTTTCCTAATCTTTCTGTTCAAGCGCCATCTAC | 0.457 |
| GATGATTGTTCTCCCAGCTGATGAATTGAATCCGTCGAGTAAACAAATTTTCCTAATCTTTCTGTTCAAGCGCCATCTAC | 0.293 |
| GATGATTGTTCTCCCAGCTGATGAATTACTGAGGTCGAGTAAACAAATTTTCCTAATCTTTCTGTTCAAGCGCCATCTAC | 0.248 |
| GATGATTGTTCTCCCAGCTGATGAATTCTGATAATCGAGTAAACAAATTTTCCTAATCTTTCTGTTCAAGCGCCATCTAC | 0.377 |
| GATGATTGTTCTCCCAGCTGATGAATTCGAGGGGTCGAGTAAACAAATTTTCCTAATCTTTCTGTTCAAGCGCCATCTAC | 0.349 |
| GATGATTGTTCTCCCAGCTGATGAATTAGGTACGTCGAGTAAACAAATTTTCCTAATCTTTCTGTTCAAGCGCCATCTAC | 0.514 |
| GATGATTGTTCTCCCAGCTGATGAATTGACCTATTCGAGTAAACAAATTTTCCTAATCTTTCTGTTCAAGCGCCATCTAC | 0.354 |
| GATGATTGTTCTCCCAGCTGATGAATTGTCATTGTCGAGTAAACAAATTTTCCTAATCTTTCTGTTCAAGCGCCATCTAC | 1.19 |
| GATGATTGTTCTCCCAGCTGATGAATTTCGCCGCTCGAGTAAACAAATTTTCCTAATCTTTCTGTTCAAGCGCCATCTAC | 2.15 |
| GATGATTGTTCTCCCAGCTGATGAATTACGCTGGTCGAGTAAACAAATTTTCCTAATCTTTCTGTTCAAGCGCCATCTAC | 0.673 |
| GATGATTGTTCTCCCAGCTGATGAATTGACCCCTTCGAGTAAACAAATTTTCCTAATCTTTCTGTTCAAGCGCCATCTAC | 0.322 |

| Sequence | binding signal (RPM ratio (pull-down/input)) |
| --- | --- |
| GATGATTGTTCTCCCAGCTGATGAATTGAACTATTCGAGTAAACAAATTTTCCTAATCTTTCTGTTCAAGCGCCATCTAC | 0.352 |
| GATGATTGTTCTCCCAGCTGATGAATTCACATTATCGAGTAAACAAATTTTCCTAATCTTTCTGTTCAAGCGCCATCTAC | 0.627 |
| GATGATTGTTCTCCCAGCTGATGAATTGGATCGATCGAGTAAACAAATTTTCCTAATCTTTCTGTTCAAGCGCCATCTAC | 0.227 |
| GATGATTGTTCTCCCAGCTGATGAATTGGTCCACTCGAGTAAACAAATTTTCCTAATCTTTCTGTTCAAGCGCCATCTAC | 0.387 |
| GATGATTGTTCTCCCAGCTGATGAATTAGCATTCTCGAGTAAACAAATTTTCCTAATCTTTCTGTTCAAGCGCCATCTAC | 4.37 |
| GATGATTGTTCTCCCAGCTGATGAATTAACCACCTCGAGTAAACAAATTTTCCTAATCTTTCTGTTCAAGCGCCATCTAC | 0.271 |
| GATGATTGTTCTCCCAGCTGATGAATTTAATTATTCGAGTAAACAAATTTTCCTAATCTTTCTGTTCAAGCGCCATCTAC | 3.6 |
| GATGATTGTTCTCCCAGCTGATGAATTCATTTTTTCGAGTAAACAAATTTTCCTAATCTTTCTGTTCAAGCGCCATCTAC | 0.983 |
| GATGATTGTTCTCCCAGCTGATGAATTTGCAAACTCGAGTAAACAAATTTTCCTAATCTTTCTGTTCAAGCGCCATCTAC | 0.673 |
| GATGATTGTTCTCCCAGCTGATGAATTAAATATTTCGAGTAAACAAATTTTCCTAATCTTTCTGTTCAAGCGCCATCTAC | 0.666 |
| GATGATTGTTCTCCCAGCTGATGAATTGTGTCATTCGAGTAAACAAATTTTCCTAATCTTTCTGTTCAAGCGCCATCTAC | 4.91 |
| GATGATTGTTCTCCCAGCTGATGAATTTAATACGTCGAGTAAACAAATTTTCCTAATCTTTCTGTTCAAGCGCCATCTAC | 0.538 |
| GATGATTGTTCTCCCAGCTGATGAATTCCGCATCTCGAGTAAACAAATTTTCCTAATCTTTCTGTTCAAGCGCCATCTAC | 6.95 |
| GATGATTGTTCTCCCAGCTGATGAATTTAACGAGTCGAGTAAACAAATTTTCCTAATCTTTCTGTTCAAGCGCCATCTAC | 0.208 |
| GATGATTGTTCTCCCAGCTGATGAATTAGGCCTTTCGAGTAAACAAATTTTCCTAATCTTTCTGTTCAAGCGCCATCTAC | 4.1 |
| GATGATTGTTCTCCCAGCTGATGAATTTCTGCCCTCGAGTAAACAAATTTTCCTAATCTTTCTGTTCAAGCGCCATCTAC | 0.382 |
| GATGATTGTTCTCCCAGCTGATGAATTTATTGCTTCGAGTAAACAAATTTTCCTAATCTTTCTGTTCAAGCGCCATCTAC | 3.88 |
| GATGATTGTTCTCCCAGCTGATGAATTAAAGCGCTCGAGTAAACAAATTTTCCTAATCTTTCTGTTCAAGCGCCATCTAC | 0.568 |
| GATGATTGTTCTCCCAGCTGATGAATTATTCCATTCGAGTAAACAAATTTTCCTAATCTTTCTGTTCAAGCGCCATCTAC | 0.434 |
| GATGATTGTTCTCCCAGCTGATGAATTGGGACTATCGAGTAAACAAATTTTCCTAATCTTTCTGTTCAAGCGCCATCTAC | 0.579 |
| GATGATTGTTCTCCCAGCTGATGAATTGAGTTACTCGAGTAAACAAATTTTCCTAATCTTTCTGTTCAAGCGCCATCTAC | 1.19 |
